Measured values as given in patent US12551573B2, “Compositions and methods for the targeting of PCSK9” (Scribe Therapeutics Inc., priority 2022, dated 2026).
Read-outs that look alike come from different tables or passages of the source.

B1: DOMAIN_9012 (protein, listed as Mus musculus)
chain: MVLVSFEDVAVDFTWEEWQALDAAQRTLYRDVMLETYSSLVSLGHCMAKPELIFNLEQGLGPRSTAGASVWNLSGRTEDS
B2: DOMAIN_8850 (protein, listed as Peromyscus maniculatus)
chain: FKELVVFRDVAVEFCREEWECLDPRQRSLYRDVMLETYGNFVSLGLAISKPSVISLLEQGKEPWMVEQAGWYPDLLSVNET
B3: DOMAIN_9060 (protein, listed as Cricetulus griseus)
chain: FQELVVFRDVAVEFCKDEWECLGPDQRSLYRDVMLETYSNFVSLGLAVSKPSVISLLEQGKEPWMVEQAGWYPDLLSVNET
B4: DOMAIN_9290 (protein, listed as Peromyscus maniculatus)
chain: MNTVTYDDVHIGFTWEEWTLLDPSQKNLYKDVMLETYRNLAIIGYSWEDHNIEEHYQNSRRHERHERSQTGMKTSVHTQCS
B5: DOMAIN_9114 (protein, listed as Peromyscus maniculatus)
chain: PQSLLSFGDVAVDFSQEEWEYLDYDQRTLYMDVMLENYSNLVFVENHRIYGKYEKDLDQGTKHIAHEDVIIQEKSYKCNEL
B6: DOMAIN_9192 (protein, listed as Mus caroli)
chain: SQGLVTFGDVAVVFSQEEWEWLSSEQRSLYWKVMLDNYRNLASLGLCASKPDMITSLEQGRDPWMMKRKMRKGQRLDLKAM
B7: DOMAIN_8839 (protein, listed as Peromyscus maniculatus)
chain: RPRALKFADVAVYFSPEEWGCLRPAQRLLYREVMRETYGLLGALGCAGPTPALISWLERNTDDWEPAALDPQEYRRWATFQ
B8: DOMAIN_8936 (protein, listed as Cricetulus griseus)
chain: GNQFSFQSLLTFKDVAINFSKEEWECLHTSQRNLYRDVMLENYSNLVSVGLSESKPELVTCLEQNKEPWMVNIDEAEGLGQ
B9: DOMAIN_8546 (protein, listed as Mus musculus)
chain: KPGTVSFADVAVYFSPEEWRYLRPAQRALYREVMRETYGLLTYLDVGCAKPALISWVEEESEVWGPGAQDPEVAMCRTEVH
B10: DOMAIN_9313 (protein, listed as Mus musculus)
chain: KPWAVNFADVAVYFSPEEWRYLRPAQRALYREVMRETYGLLAYLDVGCAKPALICWVEEESEVWGPCAQDPEVAMCRTEVH
B11: DOMAIN_8989 (protein)
chain: PKVPVSFEDVAMYFTKTEWKLLDLKQRILYKQVMLENYGHLVSLGFAFSKPRLVSQLERGEGPWVADSLRGQAEAESHAGE
modifications: Marmota monax
B12: DOMAIN_8899 (protein, listed as Mesocricetus auratus)
chain: SETGNAVTYDDVHISFTSKEWALLDPSQKSLYKDVMLEIYSHLTAIGYKWEAHDSEDHGQRFRRQRRHKRSHTEVKTYKCS
B13: DOMAIN_8547 (protein, listed as Mus caroli)
chain: DKALMAFHDVAVAFSQMEWELLSPAQRILYREVMLENYSHLVSLGIAFSKPKLITQLEQGAEPWRDGSGCFLDLCPAEPRT
B14: DOMAIN_9250 (protein)
chain: QQRPVSFKDVVVGFTQEEWRRLNPAQRALYRDVMLETYSNLVSVGYEGTKPDVILRLEQEEAPWICEAVCPGCHCQEDFLS
modifications: Marmota monax
B15: DOMAIN_9175 (protein, listed as Peromyscus maniculatus)
chain: KENAVTYDDIHIDFTREEWTLLDPSQKNLYKDVMLETYRHLTTIGYSWEDHNIEKYCESSRRHKSTVQRHKRTNTNENPYE
B16: DOMAIN_9235 (protein, listed as Mus musculus)
chain: DMGLVSFEDVAVDFTWQEWQELDAAQRTLYRDVMLENYRSLVWLGHCLAKPELISKLEEGFEPWGVAEATEQCLPCAEDQT
B17: DOMAIN_9042 (protein, listed as Mus caroli)
chain: DLVTYDDVHVNFTQEEWALLDPSQKNLYKDVMLETYRNLSAIGYIWEVHTSEDHFQTSRSHGRHERSCTAVQPSEFIQCGK
B18: DOMAIN_8790 (protein)
chain: NEMVTFKDVAVVFSGEELELLDSAQWKLYQDVMLENFRNLLSVGGRIQTELETFPEAGPHEELSWQQIWEQIASDSTFSQD
modifications: Marmota monax
B19: DOMAIN_8549 (protein, listed as Mus caroli)
chain: VCGSVTFKDVAVDFSQEEWACLDATQKVLYRDMMLETYSNLVAVVGRCISKPDLIVLLEQEKEPWMAVKEETDRPSPDLES
B20: DOMAIN_8793 (protein, listed as Mus caroli)
chain: VCGSVTFKDVAVDFSQEEWACLDATQKVLYRDMMLETYSNLVAVVGHCISKPDLIVLLEQEKEPWMTVKEETDRPSPDLEA
B21: DOMAIN_9356 (protein, listed as Ictidomys tridecemlineatus)
chain: EPGAVSFADVAVYFSPEEWGCLRPAQRVLYRDVMRETYGHLGALGFPGPKPALISWMEQESEAWSSAAQDPEEGESLGGAL
B22: DOMAIN_8502 (protein, listed as Cricetulus griseus)
chain: CNSWISPSDVAINFSKEEWECLHPSQKDLYRDVMLENYSNLVSVGLSESKPELVTCLEENKEPWMVNIDEAEGLGQGVFCY
B23: DOMAIN_9174 (protein, listed as Peromyscus maniculatus)
chain: MVTFKDVAVAFSEEELRLLDPAQRKLYQEVMVENFQNLLSVGINNQSELRAVQDGGSHEALSCWQIWQRVIDNLTRCQDSM
B24: DOMAIN_9159 (protein, listed as Dipodomys ordii)
chain: AVTQLTFEDVAVDFTPEEWRCLTPAQRALYRDVMLDTYRNLVSVGVSPPSMSVILPLEFQEEPWVAQSHVTTLGGLNGWEG
B25: DOMAIN_8886 (protein, listed as Cricetulus griseus)
chain: LINAVTYNDVHINFTQEEWALLDPSQKSLYKDVMLETYRNLTAIGYSCEDHNIEEHCQSSTRHRRYERRHSREKPSEYSQC
B26: DOMAIN_9324 (protein, listed as Peromyscus maniculatus)
chain: MEEMLSFRDVAIDFSAEEWECLDLAQWNLYRDVMLENYSNLVFLGLASCKPYLVTFLEQRQGPSDVKRQAAAPVHPGGTPY
B27: DOMAIN_8844 (protein, listed as Peromyscus maniculatus)
chain: ARVSVMFSDVSIAFSREEWEYLDLSQRDLYKDVMMENYRNVASLGYFISKPDVISLLEQGKEPWKVVRRRRRNPDLETKDE
B28: DOMAIN_8830 (protein, listed as Cavia porcellus)
chain: LRDLVTFEDVAVDFTQEEWALLDASQRSLYREVMLENCRNLASLGCHVDKPSLISQLEQEDQAMTEERGNLPGTCPDLETV
B29: DOMAIN_9538 (protein, listed as Mus musculus)
chain: MNAVTYEDVHVNFTQEEWALLDPSQKKLYKDVMLETYRNLNAIGFNWDSKIFKNIVQVLEDTEGMKEVRVQRKRLNILNVI
B30: DOMAIN_8789 (protein)
chain: FQELVSFNDVTVGFTQEEWQHLDPSQRSLYREVMLENYSHLVSVGYCVTKPEVIFRLEQGEEPWISEAEFPSQSFPELWKA
modifications: Marmota monax
B31: DOMAIN_8688 (protein, listed as Mus musculus)
chain: MDAVTYEDVHVNFSQEEWALLDPSQKSLYKDVMLETYWNLTCIGYKWEDHNIEDQHQSSGRHGRCINCPSAYGKKQCTNLF
B32: DOMAIN_8931 (protein, listed as Cricetulus griseus)
chain: DSVTFEDVAISFTVEEWALLDPSQKKLHRDVMEETFRNLAAIGRTQDDQHIDNDHRYSRRNQRNEVVERLLERNKSSECKE
B33: DOMAIN_9189 (protein)
chain: EPWAITFADVAVYFSPEEWGCLQPTQRALYRDVMRDTYVLLSALGGGGAKPALISWVEREAELWDPDAQDPEVPKWPTEAD
modifications: Heterocephalus glaber
B34: DOMAIN_9265 (protein, listed as Mus musculus)
chain: VEEPVTFKDVAVAFTQEEWGQLDLVQRTLYRDVMLETYGHLLSVGNQIAKPEVISLLEQGEEPWSVEQGYPKSSCPEWMRN
B35: DOMAIN_8816 (protein, listed as Peromyscus maniculatus)
chain: SGSQDAVTYEDVHVNFTPEEWALLDSSQKSLYKEVMLETYRNLTSIGYKWEDLNIEEHCQSSRRLKRYIIGHSRYKPCDRE
B36: DOMAIN_8689 (protein, listed as Mus musculus)
chain: LLHGCCSLETHSIRDKNAVTYGDVHVNFTQEEWALLDPSQKKLYKDVMLETYRNLNAIGFNWDDKNTEEHCPSTRRWRRYP
B37: DOMAIN_8853 (protein, listed as Mesocricetus auratus)
chain: ARVAVMFSDVSIAFSQEEWEYLDLAQRDLYKDVMMENYRNVASLAGCFISKPDVISLLEQGKEPWKVVRKRRRNPDLETKD
B38: DOMAIN_9331 (protein, listed as Peromyscus maniculatus)
chain: IQNTVTYDDVHIDFTWEEWTLLDPSQRNLYKDVMVETYTNLTAVGYSWEDHNMEEHCQSSQRQRRYKRSNTGEKPCEYTQC

Test system: HBEGF locus
Format: cell-based, human
[1] = repressor domain in dXR, repression of the HBEGF gene, abundance of domain in library after vs before diphtheria toxin selection
[2] = high-throughput screen of dXR repression of the HBEGF gene, change in abundance of each domain in the library before and after diphtheria toxin selection

Molecule | Log2 (fold change) [1] | Log2 (fold change) [2]
B1 | 2.3905 | 
B2 | 2.695 | 
B3 | 2.5974 | 
B4 | 4.256 | 
B5 |  | 2.2058
B6 | 2.7981 | 
B7 | 3.0637 | 
B8 | 4.3486 | 
B9 | 2.9439 | 
B10 | 2.7692 | 
B11 | 2.2309 | 
B12 | 3.2182 | 
B13 | 3.3997 | 
B14 | 3.466 | 
B15 | 2.4231 | 
B16 | 2.7307 | 
B17 | 2.5894 | 
B18 |  | 2.7436
B19 | 2.8508 | 

Molecule | Log2 (fold change) [1] | Log2 (fold change) [2]
B20 | 2.6774 | 
B21 | 2.9297 | 
B22 | 2.1429 | 
B23 | 2.5194 | 
B24 | 3.0141 | 
B25 | 3.5727 | 
B26 | 3.1782 | 
B27 | 4.1629 | 
B28 | 3.0644 | 
B29 |  | 3.5443
B30 | 3.1756 | 
B31 | 2.4409 | 
B32 | 2.9497 | 
B33 | 3.3801 | 
B34 | 2.1221 | 
B35 | 2.4156 | 
B36 | 2.8548 | 
B37 |  | 4.6199
B38 |  | 4.1063
